Results as given in the supplement of paper PMC11417369.
This is one part of the list.

These sequences were tested on PF3D7_0420300 AP2 domain 1 (GST-tagged) (assay: gcPBM binding intensity (ln(normalized median fluorescence intensity)); higher = stronger DNA binding).
Procedure, shortened: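 GST-fused DNA-binding domains of P. falciparum, expressed in E. coli, were applied at about 25 μg on average for 1 h to an Agilent 4 × 180k array of primer-extended double-stranded 36-bp intergenic genomic probes and negative controls. Binding intensity is the highest Masliner-normalised natural-log median intensity across replicate spots of either probe orientation, measured with Alexa488 anti-GST antibody and a 488 nm scan.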

Row | Sequence | gcPBM binding intensity (ln)
1 | TGAAGATAAAAATATGCACACATATATATATATATA [CACACA_site8027] | 9.33
2 | CATAAAAATGAACATACACACATATATTTATTTATA [CACACA_site7222] | 9.67
3 | ATTATATATATTGGAGTGCATATATAGTATTTTATA | 9.25
4 | ACATATTATAGGAATACACACAAAAACTTATCGGTA [CACACA_site7587] | 9.87
5 | ATAGAAATCTATTGTGATTATTATTTTATTTTTAGT [XGTACX_negctrl_site605] | 9.25
6 | AATGTATTATGTAATAGTACGTATAATATCTTATTT [XGTACX_site3] | 9.28
7 | ATACATATCTATAATACACACATAAATGTAACATTT [CACACA_site7621] | 9.62
8 | TTCTACGTTTTAAAAAAAAAAAAAAAAAAAAAAAAA [XGTACX_negctrl_site6] | 8.6
9 | AATAATAACAAATGAACACACATATATATGAGCAAA [CACACA_site2121] | 9.73
10 | TTGATATAAAAAGAAAGTACTTTATAGATGTTTATT [XGTACX_site8144] | 9.16
11 | TATAAAAATATATATATATATATATATATATATATA [TGCATGCA_negctrl_site541] | 8.89
12 | TTCTCCATCAGATACTGTACATAATATATATAATAT [XGTACX_site8827] | 9.39
13 | TGTATAACCTGTGTTACACACATTAGAATTTATATA [CACACA_site6393] | 9.34
14 | GCATCATTTATTTGCACACCTATTATATACTTTTTA [CACACA_site2098] | 9.67
15 | TATATAAAGATATATACACACAAAAAAAAAAAAAAA [CACACA_site6778] | 9.32
16 | TACATAAACTTTATAACACACACTTATATATATATA [CACACA_site1106] | 9.54
17 | AAAAAGAATATAAGTAGTACAGTGCATATAATAATT [XGTACX_site617] | 9.77
18 | TATAATTTTTTTAATACACACAAATATTTATATATA [CACACA_site3042] | 9.23
19 | AATTAATGTTTTGTCACACAGTATGATTATATATAT [CACACA_site6143] | 9.51
20 | AAGAGAAATGGGCACACACACACATATTATATATAT [CACACA_site1531] | 10.1
21 | TATATATACATATACGCATGTAAATTCAAAAGTAAA [TGCATGCA_site956] | 9.18
22 | TTAGTATATTTTTCCTGTACGTACTCAGATACAAAT [XGTACX_site7397] | 9.19
23 | TTAAATAATTTTTAATGTACATTAAATTTATTATTA [XGTACX_site261] | 8.75

Row | Sequence | gcPBM binding intensity (ln)
24 | TACACATTATGTATCATACACACAAATAAATATATA [CACACA_site608] | 9.55
25 | TTCTATTTTTTAAAAGTGCATATTATAAATATATAT | 9.02
26 | AATAGTTCTTGAACGTGTACATAAAATATAATTTAC [XGTACX_site11] | 9.17
27 | GAAATCTAAATAGAAACACACATATATAAATAAATA [CACACA_site7762] | 9.5
28 | GAATAATCCAAACACACACACACACCCGAATAAATA [CACACA_site482] | 10.2
29 | TAGTATTTATATGTTATATATATAAAATAATACAGT [XGTACX_negctrl_site571] | 9.34
30 | ATATCTAATAAAAATACACACACATATGATTTGTGA [CACACA_site8558] | 9.66
31 | TATATAGAATTATATGCATGTTCAAAAAAATACAAC [TGCATGCA_site431] | 9.36
32 | TATTTTTATTTATAACGTACGAAAAATGTATATAAT [XGTACX_site703] | 9.16
33 | GGTGTATGTTAAAGGAGTACATATATATATATATAT [XGTACX_site7727] | 9.3
34 | CATACACATTTCATATGTACATAGATTGAAGGGAAG [XGTACX_site116] | 9.23
35 | TTTTATATATAATTCACACAAAAAAGATACATAAGA [CACACA_site5332] | 9.25
36 | ACAACACATATTCATCGTACATGTATTAGGAAGACA [XGTACX_site1859] | 9.37
37 | TAAGCAAAAATAATTACACACAAATTTATAAAAAAT [CACACA_site3377] | 9.64
38 | ATTTTGTTTTTTTTTGCACACCATAAGGAGTGTAGG [CACACA_site1414] | 9.25
39 | ATAAAAATATAATTGAGTACATATGAATAGTCCTAT [XGTACX_site6281] | 9.17
40 | ATTTTTTTTTTTTTTTTTTTTTTTTTTGAATTCACA [CACACA_negctrl_site982] | 8.89
41 | TATATAAAAATATGTTGTACGCATTTATAAATATAT [XGTACX_site3758] | 9.19
42 | AGGATAATATACAAAAGTACATAAAACTAAAAAAAC [XGTACX_site605] | 9.77
43 | AAAGAAAGAAAGAATACACACACACCGATATATATA [CACACA_site9246] | 10.2
44 | AACATATATTTTGAAACACACACATATATAATATAC [CACACA_site8301] | 9.89
45 | TCCTTTTTACTACTAGTGCATTATTTACAAGGTCCG [GTGCAC_site9441] | 9.07
